Laboratory results as given in the supplement of paper PMC8728848.
Some of the results follow.

Assays:
Test in all cases: glycan array binding signal (z-score within array); higher = stronger binding
Settings in all cases: glycan notation: IUPAC condensed, linker removed
Fuc(a1-2)Gal = biological target: Fuc(a1-2)Gal
Method in brief: (§1)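 Arrays were curated from the Consortium for Functional Glycomics database, 3228 in total, and kept only where the protein sequence was available. Binding is expressed as a within-array Z-score. This score was averaged across arrays of the same protein sequence at different concentrations or buffers and across linkers, and negative values can be read as non-binding.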

Fuc(a1-2)Gal(b1-3)GalNAc = biological target: Fuc(a1-2)Gal(b1-3)GalNAc
Method in brief: as §1

[1] = biological target: Fuc(a1-2)Gal(b1-3)GalNAc(b1-3)Gal
Method in brief: as §1

[2] = biological target: Fuc(a1-2)Gal(b1-3)GalNAc(b1-3)Gal(a1-4)Gal(b1-4)Glc
Method in brief: as §1

[3] = biological target: Fuc(a1-2)Gal(b1-3)GalNAc(b1-4)[Neu5Ac(a2-3)]Gal(b1-4)Glc
Method in brief: as §1

Fuc(a1-2)Gal(b1-3)GlcNAc = biological target: Fuc(a1-2)Gal(b1-3)GlcNAc
Method in brief: as §1

[4] = biological target: Fuc(a1-2)Gal(b1-3)GlcNAc(b1-2)Man(a1-3)[Fuc(a1-2)Gal(b1-3)GlcNAc(b1-2)Man(a1-6)]Man(b1-4)GlcNAc(b1-4)GlcNAc
Method in brief: as §1

[5] = biological target: Fuc(a1-2)Gal(b1-3)GlcNAc(b1-3)Gal(b1-4)Glc
Method in brief: as §1

[6] = biological target: Fuc(a1-2)Gal(b1-3)GlcNAc(b1-3)[Gal(b1-4)[Fuc(a1-3)]GlcNAc(b1-6)]Gal(b1-4)Glc
Method in brief: as §1

[7] = biological target: Fuc(a1-2)Gal(b1-3)[Fuc(a1-4)]GlcNAc
Method in brief: as §1

[8] = biological target: Fuc(a1-2)Gal(b1-3)[Fuc(a1-4)]GlcNAc(b1-2)Man(a1-3)[Fuc(a1-2)Gal(b1-3)[Fuc(a1-4)]GlcNAc(b1-2)Man(a1-6)]Man(b1-4)GlcNAc(b1-4)GlcNAc
Method in brief: as §1

Fuc(a1-2)Gal(b1-4)Glc = biological target: Fuc(a1-2)Gal(b1-4)Glc
Method in brief: as §1

Fuc(a1-2)Gal(b1-4)Glc6S = biological target: Fuc(a1-2)Gal(b1-4)Glc6S
Method in brief: as §1

Fuc(a1-2)Gal(b1-4)GlcNAc = biological target: Fuc(a1-2)Gal(b1-4)GlcNAc
Method in brief: as §1

[9] = biological target: Fuc(a1-2)Gal(b1-4)GlcNAc(b1-2)Man(a1-3)[Fuc(a1-2)Gal(b1-4)GlcNAc(b1-2)Man(a1-6)]Man(b1-4)GlcNAc(b1-4)GlcNAc
Method in brief: as §1

[10] = biological target: Fuc(a1-2)Gal(b1-4)GlcNAc(b1-3)Gal(b1-4)GlcNAc
Method in brief: as §1

[11] = biological target: Fuc(a1-2)Gal(b1-4)GlcNAc(b1-3)Gal(b1-4)GlcNAc(b1-3)Gal(b1-4)GlcNAc
Method in brief: as §1

[12] = biological target: Fuc(a1-2)Gal(b1-4)GlcNAc6S
Method in brief: as §1

[13] = biological target: Fuc(a1-2)Gal(b1-4)[Fuc(a1-3)]GlcNAc
Method in brief: as §1

[14] = biological target: Fuc(a1-2)Gal(b1-4)[Fuc(a1-3)]GlcNAc(b1-2)Man(a1-3)[Fuc(a1-2)Gal(b1-4)[Fuc(a1-3)]GlcNAc(b1-2)Man(a1-6)]Man(b1-4)GlcNAc(b1-4)GlcNAc
Method in brief: as §1

[15] = biological target: Fuc(a1-2)Gal(b1-4)[Fuc(a1-3)]GlcNAc(b1-3)Gal(b1-4)[Fuc(a1-3)]GlcNAc
Method in brief: as §1

[16] = biological target: Fuc(a1-2)Gal(b1-4)[Fuc(a1-3)]GlcNAc(b1-3)Gal(b1-4)[Fuc(a1-3)]GlcNAc(b1-3)Gal(b1-4)[Fuc(a1-3)]GlcNAc
Method in brief: as §1

Fuc(a1-2)Gal6S(b1-4)Glc = biological target: Fuc(a1-2)Gal6S(b1-4)Glc
Method in brief: as §1

[17] = biological target: Fuc(a1-2)Gal6S(b1-4)Glc6S
Method in brief: as §1

[18] = biological target: Fuc(a1-2)Gal6S(b1-4)GlcNAc
Method in brief: as §1

Fuc(a1-2)[Gal(a1-3)]Gal = biological target: Fuc(a1-2)[Gal(a1-3)]Gal
Method in brief: as §1

[19] = biological target: Fuc(a1-2)[Gal(a1-3)]Gal(b1-3)GlcNAc
Method in brief: as §1

[20] = biological target: Fuc(a1-2)[Gal(a1-3)]Gal(b1-3)GlcNAc(b1-2)Man(a1-3)[Fuc(a1-2)[Gal(a1-3)]Gal(b1-3)GlcNAc(b1-2)Man(a1-6)]Man(b1-4)GlcNAc(b1-4)GlcNAc
Method in brief: as §1

[21] = biological target: Fuc(a1-2)[Gal(a1-3)]Gal(b1-4)Glc
Method in brief: as §1

[22] = biological target: Fuc(a1-2)[Gal(a1-3)]Gal(b1-4)GlcNAc
Method in brief: as §1

B1: Neuropilin-2 (Homo sapiens), O60462 (protein)
chain: MDMFPLTWVFLALYFSRHQVRGQPDPPCGGRLNSKDAGYITSPGYPQDYPSHQNCEWIVYAPEPNQKIVLNFNPHFEIEKHDCKYDFIEIRDGDSESADLLGKHCGNIAPPTIISSGSMLYIKFTSDYARQGAGFSLRYEIFKTGSEDCSKNFTSPNGTIESPGFPEKYPHNLDCTFTILAKPKMEIILQFLIFDLEHDPLQVGEGDCKYDWLDIWDGIPHVGPLIGKYCGTKTPSELRSSTGILSLTFHTDMAVAKDGFSARYYLVHQEPLENFQCNVPLGMESGRIANEQISASSTYSDGRWTPQQSRLHGDDNGWTPNLDSNKEYLQVDLRFLTMLTAIATQGAISRETQNGYYVKSYKLEVSTNGEDWMVYRHGKNHKVFQANNDATEVVLNKLHAPLLTRFVRIRPQTWHSGIALRLELFGCRVTDAPCSNMLGMLSGLIADSQISASSTQEYLWSPSAARLVSSRSGWFPRIPQAQPGEEWLQVDLGTPKTVKGVIIQGARGGDSITAVEARAFVRKFKVSYSLNGKDWEYIQDPRTQQPKLFEGNMHYDTPDIRRFDPIPAQYVRVYPERWSPAGIGMRLEVLGCDWTDSKPTVETLGPTVKSEETTTPYPTEEEATECGENCSFEDDKDLQLPSGFNCNFDFLEEPCGWMYDHAKWLRTTWASSSSPNDRTFPDDRNFLRLQSDSQREGQYARLISPPVHLPRSPVCMEFQYQATGGRGVALQVVREASQESKLLWVIREDQGGEWKHGRIILPSYDMEYQIVFEGVIGKGRSGEIAIDDIRISTDVPLENCMEPISAFAGENFKVDIPEIHEREGYEDEIDDEYEVDWSNSSSATSGSGAPSTDKEKSWLYTLDPILITIIAMSSLGVLLGATCAGLLLYCTCSYSGLSSRSCTTLENYNFELYDGLKHKVKMNHQKCCSEA
B1 was tested, and the “glycan array binding signal (z-score)” value (Fuc(a1-2)Gal) was -0.954, the “glycan array binding signal (z-score)” value (Fuc(a1-2)Gal(b1-3)GalNAc) was 0.125 and the “glycan array binding signal (z-score)” value [1] was 1.26. For the same binder, the “glycan array binding signal (z-score)” value [2] was 0.325, the “glycan array binding signal (z-score)” value [3] was -0.01 and the “glycan array binding signal (z-score)” value (Fuc(a1-2)Gal(b1-3)GlcNAc) was -0.234. For the same binder, the “glycan array binding signal (z-score)” value [4] was 1.05, the “glycan array binding signal (z-score)” value [5] was -0.564 and the “glycan array binding signal (z-score)” value [6] was -0.248. The “glycan array binding signal (z-score)” value [7] was 0.065, the “glycan array binding signal (z-score)” value [8] was 1.92 and the “glycan array binding signal (z-score)” value (Fuc(a1-2)Gal(b1-4)Glc) was -0.344. For the same binder, the “glycan array binding signal (z-score)” value (Fuc(a1-2)Gal(b1-4)Glc6S) was 0.348, the “glycan array binding signal (z-score)” value (Fuc(a1-2)Gal(b1-4)GlcNAc) was 0.311 and the “glycan array binding signal (z-score)” value [9] was 3.21. The “glycan array binding signal (z-score)” value [10] was 0.165, the “glycan array binding signal (z-score)” value [11] was 0.294 and the “glycan array binding signal (z-score)” value [12] was -0.565. For the same binder, the “glycan array binding signal (z-score)” value [13] was 0.117, the “glycan array binding signal (z-score)” value [14] was 2.33 and the “glycan array binding signal (z-score)” value [15] was -0.074. For the same binder, the “glycan array binding signal (z-score)” value [16] was 0.415, the “glycan array binding signal (z-score)” value (Fuc(a1-2)Gal6S(b1-4)Glc) was 0.667 and the “glycan array binding signal (z-score)” value [17] was 0.796. For the same binder, the “glycan array binding signal (z-score)” value [18] was -0.558, the “glycan array binding signal (z-score)” value (Fuc(a1-2)[Gal(a1-3)]Gal) was -0.182 and the “glycan array binding signal (z-score)” value [19] was 0.323. For the same binder, the “glycan array binding signal (z-score)” value [20] was -0.212, the “glycan array binding signal (z-score)” value [21] was -0.106 and the “glycan array binding signal (z-score)” value [22] was -0.731.
